Source: patent US9873709B2 (priority 2013, dated 2018)

These compounds were tested against isolated recombinant JAK1 kinase domain (Homo sapiens (Human), UniProt P23458). Settings: read-out: JAK1 Ki; isolated recombinant JAK1 kinase domain, 25 μM ATP.

**Q.** `CN(CCc1ccncc1)C(=O)c1ccc(Nc2nc3c(C4=CCN(C(=O)CCC(F)(F)F)CC4)cccn3n2)cc1` [Example 2-96, N-methyl-N-[2-(4-pyridyl)ethyl]-4-[[8-[1-(4,4,4-trifluorobutanoyl)-3,6-dihydro-2H-pyridin-4-yl]-[1,2,4]triazolo[1,5-a]pyridin-2-yl]amino]benzamide] was tested. Which pKi did it give?
**A.** The pKi was 9.17.

**Q.** `CN(C)C1CCN(C(=O)c2ccc(Nc3nc4c(C5=CCN(C(=O)CCC(F)(F)F)CC5)cccn4n3)cc2)CC1` [Example 2-97, 1-[4-[2-[4-[4-(dimethylamino)piperidine-1-carbonyl]anilino]-[1,2,4]triazolo[1,5-a]pyridin-8-yl]-3,6-dihydro-2H-pyridin-1-yl]-4,4,4-trifluoro-butan-1-one] was tested. Which pKi did it give?
**A.** The pKi was 8.97.

**Q.** How did the pKi turn out when `CN1CCN(C(=O)c2ccc(Nc3nc4c(C5=CCN(C(=O)CCC(F)(F)F)CC5)cccn4n3)cc2)CC1` [Example 2-98, 4,4,4-trifluoro-1-[4-[2-[4-(4-methylpiperazine-1-carbonyl)anilino]-[1,2,4]triazolo[1,5-a]pyridin-8-yl]-3,6-dihydro-2H-pyridin-1-yl]butan-1-one] was run?
**A.** The pKi was 8.95.

**Q.** How did the pKi turn out when `CN1CCN(CCCNC(=O)c2ccc(Nc3nc4c(C5=CCN(C(=O)CCC(F)(F)F)CC5)cccn4n3)cc2)CC1` [Example 2-99, N-[3-(4-methylpiperazin-1-yl)propyl]-4-[[8-[1-(4,4,4-trifluorobutanoyl)-3,6-dihydro-2H-pyridin-4-yl]-[1,2,4]triazolo[1,5-a]pyridin-2-yl]amino]benzamide] was run?
**A.** The pKi was 9.24.

**Q.** How did the pKi turn out when `CC1CCCN(CCNC(=O)c2ccc(Nc3nc4c(C5=CCN(C(=O)CCC(F)(F)F)CC5)cccn4n3)cc2)C1` (stereo not drawn) [Example 2-101, N-[2-(3-methyl-1-piperidyl)ethyl]-4-[[8-[1-(4,4,4-trifluorobutanoyl)-3,6-dihydro-2H-pyridin-4-yl]-[1,2,4]triazolo[1,5-a]pyridin-2-yl]amino]benzamide] was run?
**A.** Its pKi is 9.09.

**Q.** With `CN(C)CCN1CCN(C(=O)c2ccc(Nc3nc4c(C5=CCN(C(=O)CCC(F)(F)F)CC5)cccn4n3)cc2)CC1` [Example 2-102, 1-[4-[2-[4-[4-[2-(dimethylamino)ethyl]piperazine-1-carbonyl]anilino]-[1,2,4]triazolo[1,5-a]pyridin-8-yl]-3,6-dihydro-2H-pyridin-1-yl]-4,4,4-trifluoro-butan-1-one] as the compound, how does the pKi read?
**A.** Its pKi is 9.08.

**Q.** `O=C(CCC(F)(F)F)N1CC=C(c2cccn3nc(Nc4ccc(C(=O)N5CCCC(c6cc7cccnc7[nH]6)C5)cc4)nc23)CC1` (stereo not drawn) [Example 2-103, 4,4,4-trifluoro-1-[4-[2-[4-[3-(1H-pyrrolo[2,3-b]pyridin-2-yl)piperidine-1-carbonyl]anilino]-[1,2,4]triazolo[1,5-a]pyridin-8-yl]-3,6-dihydro-2H-pyridin-1-yl]butan-1-one] was tested. Which pKi did it give?
**A.** Its pKi is 8.57.

**Q.** `CN(Cc1ccccc1-c1cccnc1)C(=O)c1ccc(Nc2nc3c(C4=CCN(C(=O)CCC(F)(F)F)CC4)cccn3n2)cc1` [Example 2-104, N-methyl-N-[[2-(3-pyridyl)phenyl]methyl]-4-[[8-[1-(4,4,4-trifluorobutanoyl)-3,6-dihydro-2H-pyridin-4-yl]-[1,2,4]triazolo[1,5-a]pyridin-2-yl]amino]benzamide] was tested. Which pKi did it give?
**A.** The pKi was 8.71.

**Q.** How did the pKi turn out when `CN1CCC(N(C)C(=O)c2ccc(Nc3nc4c(C5=CCN(C(=O)C6CCOCC6)CC5)cccn4n3)cc2)CC1` [Example 2-105, N-methyl-N-(1-methyl-4-piperidyl)-4-[[8-[1-(tetrahydropyran-4-carbonyl)-3,6-dihydro-2H-pyridin-4-yl]-[1,2,4]triazolo[1,5-a]pyridin-2-yl]amino]benzamide] was run?
**A.** The pKi was 8.12.

**Q.** `CNC(=O)N1CC=C(c2cccn3nc(Nc4ccc(C(=O)N(C)C5CCN(C)CC5)cc4)nc23)CC1` [Example 2-106, N-methyl-4-[2-[4-[methyl-(1-methyl-4-piperidyl)carbamoyl]anilino]-[1,2,4]triazolo[1,5-a]pyridin-8-yl]-3,6-dihydro-2H-pyridine-1-carboxamide; hydrochloride] was tested. Which pKi did it give?
**A.** Its pKi is 7.41.

**Q.** `CN1CCC(N(C)C(=O)c2ccc(Nc3nc4c(C5=CCN(C(=O)C6CCOC6)CC5)cccn4n3)cc2)CC1` (stereo not drawn) [Example 2-107, N-methyl-N-(1-methyl-4-piperidyl)-4-[[8-[1-(tetrahydrofuran-3-carbonyl)-3,6-dihydro-2H-pyridin-4-yl]-[1,2,4]triazolo[1,5-a]pyridin-2-yl]amino]benzamide; hydrochloride] was tested. Which pKi did it give?
**A.** Its pKi is 8.26.

**Q.** How did the pKi turn out when `CN1CCC(N(C)C(=O)c2ccc(Nc3nc4c(C5=CCN(C(=O)OCC(F)(F)F)CC5)cccn4n3)cc2)CC1` [Example 2-108, 2,2,2-trifluoroethyl 4-[2-[4-[methyl-(1-methyl-4-piperidyl)carbamoyl]anilino]-[1,2,4]triazolo[1,5-a]pyridin-8-yl]-3,6-dihydro-2H-pyridine-1-carboxylate] was run?
**A.** Its pKi is 8.86.

**Q.** `CCOC(=O)N1CC=C(c2cccn3nc(Nc4ccc(C(=O)NC(C)(C)CN5CCOCC5)cc4)nc23)CC1` [Example 2-110, ethyl 4-[2-[4-[(1,1-dimethyl-2-morpholino-ethyl)carbamoyl]anilino]-[1,2,4]triazolo[1,5-a]pyridin-8-yl]-3,6-dihydro-2H-pyridine-1-carboxylate] was tested. Which pKi did it give?
**A.** Its pKi is 8.49.

**Q.** `CCOC(=O)N1CC=C(c2cccn3nc(Nc4ccc(C(=O)NCCC5CCCN5C)cc4)nc23)CC1` (stereo not drawn) [Example 2-111, ethyl 4-[2-[4-[2-(1-methylpyrrolidin-2-yl)ethylcarbamoyl]anilino]-[1,2,4]triazolo[1,5-a]pyridin-8-yl]-3,6-dihydro-2H-pyridine-1-carboxylate] was tested. Which pKi did it give?
**A.** The pKi was 8.80.

**Q.** `CCOC(=O)N1CC=C(c2cccn3nc(Nc4ccc(C(=O)NCCN5CCNCC5)cc4)nc23)CC1` [Example 2-112, ethyl 4-[2-[4-(2-piperazin-1-ylethylcarbamoyl)anilino]-[1,2,4]triazolo[1,5-a]pyridin-8-yl]-3,6-dihydro-2H-pyridine-1-carboxylate] was tested. Which pKi did it give?
**A.** The pKi was 8.77.

**Q.** With `CCOC(=O)N1CC=C(c2cccn3nc(Nc4ccc(C(=O)NC5CCCNC5)cc4)nc23)CC1` (stereo not drawn) [Example 2-113, ethyl 4-[2-[4-(3-piperidylcarbamoyl)anilino]-[1,2,4]triazolo[1,5-a]pyridin-8-yl]-3,6-dihydro-2H-pyridine-1-carboxylate] as the compound, how does the pKi read?
**A.** Its pKi is 8.85.

**Q.** How did the pKi turn out when `CCOC(=O)N1CC=C(c2cccn3nc(Nc4ccc(C(=O)N5CC(C(=O)N(C)C)C5)cc4)nc23)CC1` [Example 2-115, ethyl 4-[2-[4-[3-(dimethylcarbamoyl)azetidine-1-carbonyl]anilino]-[1,2,4]triazolo[1,5-a]pyridin-8-yl]-3,6-dihydro-2H-pyridine-1-carboxylate] was run?
**A.** Its pKi is 8.89.

**Q.** `CCOC(=O)N1CC=C(c2cccn3nc(Nc4ccc(C(=O)NCCC5CCN(C)CC5)cc4)nc23)CC1` [Example 2-116, ethyl 4-[2-[4-[2-(1-methyl-4-piperidyl)ethylcarbamoyl]anilino]-[1,2,4]triazolo[1,5-a]pyridin-8-yl]-3,6-dihydro-2H-pyridine-1-carboxylate] was tested. Which pKi did it give?
**A.** The pKi was 8.67.

**Q.** How did the pKi turn out when `CCOC(=O)N1CC=C(c2cccn3nc(Nc4ccc(C(=O)N(C)C5CCN(Cc6ccccc6)C5)cc4)nc23)CC1` (stereo not drawn) [Example 2-117, ethyl 4-[2-[4-[(1-benzylpyrrolidin-3-yl)-methyl-carbamoyl]anilino]-[1,2,4]triazolo[1,5-a]pyridin-8-yl]-3,6-dihydro-2H-pyridine-1-carboxylate] was run?
**A.** The pKi was 8.34.

**Q.** `CCOC(=O)N1CC=C(c2cccn3nc(Nc4ccc(C(=O)N5CCC(N(CC)CC)C5)cc4)nc23)CC1` (stereo not drawn) [Example 2-118, ethyl 4-[2-[4-[3-(diethylamino)pyrrolidine-1-carbonyl]anilino]-[1,2,4]triazolo[1,5-a]pyridin-8-yl]-3,6-dihydro-2H-pyridine-1-carboxylate] was tested. Which pKi did it give?
**A.** Its pKi is 8.46.

**Q.** How did the pKi turn out when `CCOC(=O)N1CC=C(c2cccn3nc(Nc4ccc(C(=O)N(C)CCc5ccncc5)cc4)nc23)CC1` [Example 2-119, ethyl 4-[2-[4-[methyl-[2-(4-pyridyl)ethyl]carbamoyl]anilino]-[1,2,4]triazolo[1,5-a]pyridin-8-yl]-3,6-dihydro-2H-pyridine-1-carboxylate] was run?
**A.** Its pKi is 8.77.

**Q.** `CCOC(=O)N1CC=C(c2cccn3nc(Nc4ccc(C(=O)N5CC6(CN(C)CCO6)C5)cc4)nc23)CC1` [Example 2-120, ethyl 4-[2-[4-(8-methyl-5-oxa-2,8-diazaspiro[3.5]nonane-2-carbonyl)anilino]-[1,2,4]triazolo[1,5-a]pyridin-8-yl]-3,6-dihydro-2H-pyridine-1-carboxylate] was tested. Which pKi did it give?
**A.** Its pKi is 8.06.

**Q.** With `CCOC(=O)N1CC=C(c2cccn3nc(Nc4ccc(C(=O)N5CCC(c6ccncc6)CC5)cc4)nc23)CC1` [Example 2-121, ethyl 4-[2-[4-[4-(4-pyridyl)piperidine-1-carbonyl]anilino]-[1,2,4]triazolo[1,5-a]pyridin-8-yl]-3,6-dihydro-2H-pyridine-1-carboxylate] as the compound, how does the pKi read?
**A.** The pKi was 8.65.

**Q.** How did the pKi turn out when `CCOC(=O)N1CC=C(c2cccn3nc(Nc4ccc(C(=O)N5C[C@@H]6CCN(C)[C@@H]6C5)cc4)nc23)CC1` [Example 2-122, ethyl 4-[2-[4-[(3aS,6aS)-1-methyl-2,3,3a,4,6,6a-hexahydropyrrolo[3,4-b]pyrrole-5-carbonyl]anilino]-[1,2,4]triazolo[1,5-a]pyridin-8-yl]-3,6-dihydro-2H-pyridine-1-carboxylate] was run?
**A.** The pKi was 8.32.

**Q.** `CCOC(=O)N1CC=C(c2cccn3nc(Nc4ccc(C(=O)N5CC6CN(C)CC(C5)O6)cc4)nc23)CC1` [Example 2-123, ethyl 4-[2-[4-(7-methyl-9-oxa-3,7-diazabicyclo[3.3.1]nonane-3-carbonyl)anilino]-[1,2,4]triazolo[1,5-a]pyridin-8-yl]-3,6-dihydro-2H-pyridine-1-carboxylate] was tested. Which pKi did it give?
**A.** Its pKi is 8.71.

**Q.** `CCOC(=O)N1CC=C(c2cccn3nc(Nc4ccc(C(=O)NCc5cc(C)ccn5)cc4)nc23)CC1` [Example 2-124, ethyl 4-[2-[4-[(4-methyl-2-pyridyl)methylcarbamoyl]anilino]-[1,2,4]triazolo[1,5-a]pyridin-8-yl]-3,6-dihydro-2H-pyridine-1-carboxylate] was tested. Which pKi did it give?
**A.** The pKi was 8.87.

**Q.** How did the pKi turn out when `CCOC(=O)N1CC=C(c2cccn3nc(Nc4ccc(C(=O)N5CCOC6CCNCC65)cc4)nc23)CC1` (stereo not drawn) [Example 2-125, ethyl 4-[2-[4-(2,3,4a,5,6,7,8,8a-octahydropyrido[4,3-b][1,4]oxazine-4-carbonyl)anilino]-[1,2,4]triazolo[1,5-a]pyridin-8-yl]-3,6-dihydro-2H-pyridine-1-carboxylate] was run?
**A.** The pKi was 8.42.

pKi: −log10 of the molar value. Where a name gives a salt, the structure may show the parent alone.
